According to the supplement of paper PMC4967469:

Key:
PD-173074 = compound: CCN(CC)CCCCNc1ncc2cc(-c3cc(OC)cc(OC)c3)c(NC(=O)NC(C)(C)C)nc2n1 [PD-173074]; experiment: Viability of human cancer cell lines after 72 h of drug (GDSC screen); conditions: top dose 2 µM; top dose inferred
Experimental: (§1)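 Human cancer cell lines in 384-well plates, medium with 10% serum, drug for 72 h over a 256-fold dose range (nine 2-fold or five 4-fold steps up to the top dose). Adherent lines were fixed and stained with the nucleic acid dye Syto60, suspension lines read with resazurin; signal relative to control wells, capped at 0 and 100%. One two-parameter sigmoid per drug and line, fitted in a mixed model over all curves with the slope shared within a line.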

SB590885 = compound: CN(C)CCOc1ccc(-c2nc(-c3ccncc3)c(-c3ccc4c(c3)CC/C4=N\O)[nH]2)cc1 [SB590885]; experiment: as above; conditions: top dose 5 µM; top dose inferred
Experimental: as §1

NCI-N87 (stomach, adherent)
AUC (PD-173074): 0.959 | IC50 (PD-173074): > 2000 nM | AUC (SB590885): 0.967 | IC50 (SB590885): > 5000 nM

PA-TU-8902 (pancreas, adherent)
AUC (PD-173074): 0.98 | IC50 (PD-173074): > 2000 nM | AUC (SB590885): 0.983 | IC50 (SB590885): > 5000 nM

A673 (rhabdomyosarcoma, adherent)
AUC (PD-173074): 0.99 | IC50 (PD-173074): > 2000 nM | AUC (SB590885): 0.989 | IC50 (SB590885): > 5000 nM

PWR-1E (prostate, adherent)
AUC (PD-173074): 0.927 | IC50 (PD-173074): > 2000 nM | AUC (SB590885): 0.981 | IC50 (SB590885): > 5000 nM

JEKO-1 (B-cell lymphoma, suspension)
AUC (PD-173074): 0.883 | IC50 (PD-173074): 1990 nM | AUC (SB590885): 0.853 | IC50 (SB590885): 3660 nM

JHOS-2 (ovary, adherent)
AUC (PD-173074): 0.939 | IC50 (PD-173074): > 2000 nM | AUC (SB590885): 0.956 | IC50 (SB590885): > 5000 nM

NCI-H1437 (lung adenocarcinoma, adherent)
AUC (PD-173074): 0.986 | IC50 (PD-173074): > 2000 nM | AUC (SB590885): 0.986 | IC50 (SB590885): > 5000 nM

NCI-H1792 (lung adenocarcinoma, adherent)
AUC (PD-173074): 0.99 | IC50 (PD-173074): > 2000 nM | AUC (SB590885): 0.99 | IC50 (SB590885): > 5000 nM

RCC-JF (kidney, adherent)
AUC (PD-173074): 0.982 | IC50 (PD-173074): > 2000 nM | AUC (SB590885): 0.983 | IC50 (SB590885): > 5000 nM

COLO-678 (large intestine, semi-adherent)
AUC (PD-173074): 0.979 | IC50 (PD-173074): > 2000 nM | AUC (SB590885): 0.985 | IC50 (SB590885): > 5000 nM

D-423MG (glioma, adherent)
AUC (PD-173074): 0.937 | IC50 (PD-173074): > 2000 nM | AUC (SB590885): 0.981 | IC50 (SB590885): > 5000 nM

VMRC-LCD (lung adenocarcinoma, adherent)
AUC (PD-173074): 0.992 | IC50 (PD-173074): > 2000 nM | AUC (SB590885): 0.99 | IC50 (SB590885): > 5000 nM

SW780 (bladder, adherent)
AUC (PD-173074): 0.871 | IC50 (PD-173074): > 2000 nM | AUC (SB590885): 0.983 | IC50 (SB590885): > 5000 nM

P12-ICHIKAWA (T-cell lymphoblastic leukaemia, suspension)
AUC (PD-173074): 0.992 | IC50 (PD-173074): > 2000 nM | AUC (SB590885): 0.976 | IC50 (SB590885): > 5000 nM

H2795 (mesothelioma, adherent)
AUC (PD-173074): 0.543 | IC50 (PD-173074): 163 nM | AUC (SB590885): 0.921 | IC50 (SB590885): > 5000 nM

TE-11 (oesophagus, adherent)
AUC (PD-173074): 0.988 | IC50 (PD-173074): > 2000 nM | AUC (SB590885): 0.99 | IC50 (SB590885): > 5000 nM

CHP-212 (neuroblastoma, adherent)
AUC (PD-173074): 0.964 | IC50 (PD-173074): > 2000 nM | AUC (SB590885): 0.986 | IC50 (SB590885): > 5000 nM

YAPC (pancreas, adherent)
AUC (PD-173074): 0.984 | IC50 (PD-173074): > 2000 nM | AUC (SB590885): 0.982 | IC50 (SB590885): > 5000 nM

MHH-ES-1 (Ewing sarcoma, adherent)
AUC (PD-173074): 0.966 | IC50 (PD-173074): > 2000 nM | AUC (SB590885): 0.951 | IC50 (SB590885): > 5000 nM

NCI-H2052 (mesothelioma, adherent)
AUC (PD-173074): 0.983 | IC50 (PD-173074): > 2000 nM | AUC (SB590885): 0.983 | IC50 (SB590885): > 5000 nM

HT-1376 (bladder, adherent)
AUC (PD-173074): 0.985 | IC50 (PD-173074): > 2000 nM | AUC (SB590885): 0.985 | IC50 (SB590885): > 5000 nM

BALL-1 (B-cell leukaemia, suspension)
AUC (PD-173074): 0.997 | IC50 (PD-173074): > 2000 nM | AUC (SB590885): 0.997 | IC50 (SB590885): > 5000 nM

C32 (melanoma, adherent)
AUC (PD-173074): 0.987 | IC50 (PD-173074): > 2000 nM | AUC (SB590885): 0.401 | IC50 (SB590885): 164 nM

ESS-1 (endometrium, adherent)
AUC (PD-173074): 0.974 | IC50 (PD-173074): > 2000 nM | AUC (SB590885): 0.99 | IC50 (SB590885): > 5000 nM

HO-1-u-1 (head and neck, adherent)
AUC (PD-173074): 0.988 | IC50 (PD-173074): > 2000 nM | AUC (SB590885): 0.988 | IC50 (SB590885): > 5000 nM

KYAE-1 (oesophagus, suspension)
AUC (PD-173074): 0.969 | IC50 (PD-173074): > 2000 nM | AUC (SB590885): 0.985 | IC50 (SB590885): > 5000 nM

HCC1428 (breast, adherent)
AUC (PD-173074): 0.988 | IC50 (PD-173074): > 2000 nM | AUC (SB590885): 0.987 | IC50 (SB590885): > 5000 nM

G-401 (kidney, adherent)
AUC (PD-173074): 0.84 | IC50 (PD-173074): 1580 nM | AUC (SB590885): 0.968 | IC50 (SB590885): > 5000 nM

HT-115 (large intestine, adherent)
AUC (PD-173074): 0.991 | IC50 (PD-173074): > 2000 nM | AUC (SB590885): 0.991 | IC50 (SB590885): > 5000 nM

OE33 (oesophagus, adherent)
AUC (PD-173074): 0.983 | IC50 (PD-173074): > 2000 nM | AUC (SB590885): 0.984 | IC50 (SB590885): > 5000 nM

SUP-B8 (B-cell leukaemia, suspension)
AUC (PD-173074): 0.955 | IC50 (PD-173074): > 2000 nM | AUC (SB590885): 0.989 | IC50 (SB590885): > 5000 nM

CAL-62 (thyroid, adherent)
AUC (PD-173074): 0.988 | IC50 (PD-173074): > 2000 nM | AUC (SB590885): 0.988 | IC50 (SB590885): > 5000 nM

ECC10 (stomach, suspension)
AUC (PD-173074): 0.58 | IC50 (PD-173074): 210 nM | AUC (SB590885): 0.985 | IC50 (SB590885): > 5000 nM

SNU-61 (large intestine, adherent)
AUC (PD-173074): 0.983 | IC50 (PD-173074): > 2000 nM | AUC (SB590885): 0.983 | IC50 (SB590885): > 5000 nM

HLE (liver, adherent)
AUC (PD-173074): 0.975 | IC50 (PD-173074): > 2000 nM | AUC (SB590885): 0.971 | IC50 (SB590885): > 5000 nM

MOLT-13 (T-cell lymphoblastic leukaemia, suspension)
AUC (PD-173074): 0.952 | IC50 (PD-173074): > 2000 nM | AUC (SB590885): 0.99 | IC50 (SB590885): > 5000 nM

JHH-2 (liver, adherent)
AUC (PD-173074): 0.979 | IC50 (PD-173074): > 2000 nM | AUC (SB590885): 0.982 | IC50 (SB590885): > 5000 nM

RCH-ACV (B-cell leukaemia, suspension)
AUC (PD-173074): 0.943 | IC50 (PD-173074): > 2000 nM | AUC (SB590885): 0.992 | IC50 (SB590885): > 5000 nM

SK-MEL-5 (melanoma, adherent)
AUC (PD-173074): 0.981 | IC50 (PD-173074): > 2000 nM | AUC (SB590885): 0.743 | IC50 (SB590885): 1850 nM

H2731 (mesothelioma, adherent)
AUC (PD-173074): 0.95 | IC50 (PD-173074): > 2000 nM | AUC (SB590885): 0.984 | IC50 (SB590885): > 5000 nM

PCI-30 (head and neck, adherent)
AUC (PD-173074): 0.906 | IC50 (PD-173074): > 2000 nM | AUC (SB590885): 0.97 | IC50 (SB590885): > 5000 nM

CL-34 (large intestine, adherent)
AUC (PD-173074): 0.987 | IC50 (PD-173074): > 2000 nM | AUC (SB590885): 0.901 | IC50 (SB590885): > 5000 nM

VMRC-RCZ (kidney, adherent)
AUC (PD-173074): 0.956 | IC50 (PD-173074): > 2000 nM | AUC (SB590885): 0.984 | IC50 (SB590885): > 5000 nM

SNU-C2B (large intestine, adherent)
AUC (PD-173074): 0.976 | IC50 (PD-173074): > 2000 nM | AUC (SB590885): 0.979 | IC50 (SB590885): > 5000 nM

SISO (cervix, adherent)
AUC (PD-173074): 0.988 | IC50 (PD-173074): > 2000 nM | AUC (SB590885): 0.988 | IC50 (SB590885): > 5000 nM

ZR-75-30 (breast, adherent)
AUC (PD-173074): 0.983 | IC50 (PD-173074): > 2000 nM | AUC (SB590885): 0.983 | IC50 (SB590885): > 5000 nM

DMS-273 (small cell lung carcinoma, adherent)
AUC (PD-173074): 0.974 | IC50 (PD-173074): > 2000 nM | AUC (SB590885): 0.985 | IC50 (SB590885): > 5000 nM

SU-DHL-5 (B-cell lymphoma, suspension)
AUC (PD-173074): 0.99 | IC50 (PD-173074): > 2000 nM | AUC (SB590885): 0.983 | IC50 (SB590885): > 5000 nM

IC50 is the fitted dose that halves viability relative to control wells, and lower means more sensitive; fits outside the tested doses are given as limits. For AUC the same curve is integrated over the 256-fold range of doses and scaled to a fraction; values near 1 show little effect. The top dose, if marked as inferred, was derived from the fitted curves, not read from the paper.
